Data on 90 molecules can be found in PubChem BioAssay AID463173 (ICCB-Longwood Screening Facility, Harvard Medical School, 2010).

In all, about 52,000 compounds went through this assay and about 1,700 (3.3%) were called active. Rule as the data show it: active = survival mostly below about 52% (no sharp cut-off); inactive = mostly above about 56%. Some of the results follow.

The assay relates to Wild type. Briefly: growth inhibition of S. aureus wild type versus tarO mutant, primary screen, teichoic acid synthesis inhibitors, RN4220, OD600 (AID 463173). Conditions: S. aureus RN4220 wild type/DeltatarO growth, OD600, 18 h, active compounds read low, screened at 18.75 µg/mL (by protocol).
Regarding `CCOc1ccc(CCNC(=O)CCc2c(C)nc3c(-c4ccccc4)c(C)nn3c2C)cc1OCC`, the survival is inactive: 72%. The value for `COCCCNC(=O)c1sc2nc3n(c(=O)c2c1C)CCC3` was inactive: 85%; that for `COc1ccccc1CNC(=O)CN1C(=O)COc2ccc(S(=O)(=O)N3CCC(C)CC3)cc21` was inactive: 85%. For `O=C(Cn1cc(S(=O)(=O)N2CCCC2)c(S(=O)(=O)N2CCCC2)c1)Nc1cccc(F)c1` the value was inactive: 68%; for `Cc1nc(Cc2ccc(OC(C)C)cc2)[nH]c(=O)c1CC(=O)O`, inactive: 105%. Take `C=CCC(CC=C)(CNC(=O)C(=O)Nc1cc(C)ccc1OC)c1ccc(OC)c(OC)c1`: the survival is inactive: 92%. For `CCOc1ccc(C2=NC(c3ccc(OC)cc3)=Nc3ccc(Cl)cc3N2)cc1` the value was inactive: 69%; for `COc1ccc(Cn2c(=O)sc3ccccc32)cc1`, inactive: 111%. The value for `O=C(NC1CC2CCCC(C1)N2Cc1ccccc1)C1CC1` (stereo not given) was inactive: 104%. The value for `CCc1ccc(NC(=O)C(C)n2nnc3sc(-c4ccccc4)cc3c2=O)cc1` (stereo not given) was inactive: 97%. Take `COc1ccc(NC(=O)/C(C#N)=C/c2cc(C)n(-c3ccc(F)cc3)c2C)cc1`: the survival was inactive: 97%. For `CCOC(=O)c1cccc(NC(=O)C2CCCN(S(=O)(=O)c3ccc4c(c3)oc(=O)n4C)C2)c1` (stereo not given) the value was inactive: 82%.

For `Cc1nc2nncn2c(NCc2ccc(Cl)cc2)c1C`, the survival was inactive: 87%.

On to `Cc1ccc(-n2c(=O)c3c4c(sc3n(Cc3cccc(Cl)c3)c2=O)CCC4)cc1C`, for which the survival was inactive: 108%. The value for `CC(C)C(=O)N(Cc1ccccc1)S(=O)(=O)c1ccc2c(c1)oc(=O)n2C` was inactive: 82%; that for `Cc1ccc(Cl)cc1NC(=O)Cn1c(=O)n(CCCS(=O)(=O)C2CCCCC2)c(=O)c2ccccc21` was inactive: 55%; that for `Cc1csc2nc(COC(=O)c3ccccc3NC(=O)COc3ccccc3F)cc(=O)n12` was inactive: 83%. For `Cc1nc2nc(SCC(=O)O)nn2c(C)c1Cc1c(F)cccc1Cl` the value was inactive: 66%; for `Cc1ccc(CN(C(=O)COc2ccc(Cl)c(C)c2)C2CCS(=O)(=O)C2)o1` (stereo not given), inactive: 90%. For `OCCNc1nc2ccccc2n1CCOc1ccccc1` the value was inactive: 115%; for `C=CCn1c(-c2ccccc2)n[nH]c1=S`, inactive: 105%; for `COc1ccc(-c2c3c(=O)n(C)c(=O)n(C)c3c3c(-c4cccc(C)c4)nc4ccccc4n23)cc1`, inactive: 91%. As to `COc1ccc2cc3cc(C(=O)N4CCN(c5cccc(Cl)c5)CC4)sc3nc2c1`, the survival is inactive: 83%. For `CCc1ccc(CCC(=O)Nc2ccc(S(N)(=O)=O)cc2)o1`, the survival was inactive: 127%. For `COc1ccc(NS(=O)(=O)c2ccc3c(c2)CCN3C(=O)CCC(=O)O)cc1Cl` the value was inactive: 73%.

Turning to `COc1ccc(S(=O)(=O)NCCCO)cc1-c1nnc2c3ccccc3c(C)nn12`, the survival is inactive: 140%. The value for `CCOc1ccc(NC(=O)Cn2cc(C(=O)c3ccc(CC)cc3)c(=O)c3cc(OC)c(OC)cc32)cc1` was inactive: 128%; that for `CCOC(=O)c1ccc2c(c1)N(C(CC)C(=O)Nc1ccccc1OC)C(=O)c1ccccc1S2` (stereo not given) was inactive: 75%.

`Cc1ccc(NC(=O)Cn2nc(-c3ccncc3)ccc2=O)cc1Cl`: the survival was inactive: 129%. Consider `CC(C)CCNC(=O)CSc1nc2ccccc2nc1Cc1ccccc1`, for which the survival is inactive: 85%. The value for `CCc1ccc(-n2c(=O)c3sc4ccccc4c3n(CC(=O)NC3CCCCC3)c2=O)cc1` was inactive: 83%; that for `CCC(C)C(=O)Nc1ccc(C(C)CC)cc1` (stereo not given) was inactive: 109%; that for `Cc1cc(NC(=O)CCS(=O)(=O)c2cc(Br)cc3c2N(C(=O)C2CC2)CC3)ccc1Br` was inactive: 86%. For `CCOC(=O)c1nc(Nc2ccc(C(C)=O)cc2)c2ccccc2n1` the value was inactive: 81%; for `COc1cc2c(cc1OC)C(COc1ccc3c(C)cc(=O)oc3c1)N(C(=O)C(C)C)CC2` (stereo not given), inactive: 93%. For `COc1ccc(Cn2c(=O)c3cccnc3n(CC(=O)Nc3ccc(C)c(F)c3)c2=O)cc1` the value was inactive: 119%. For the molecule `CN(C(=O)c1ccc(NC(=O)c2ccco2)cc1)C1CCCCC1`, the survival was inactive: 104%.

Consider `O=C(Nc1c(C(=O)Nc2ccc(F)cc2)oc2ccccc12)c1cc2ccccc2o1`, for which the survival is inactive: 41%. On to `Cc1ccc(C)c(CN2CCC(CNC(=O)Nc3ccc(Br)cc3F)CC2)c1`, for which the survival is inactive: 55%. The value for `Cc1ccc(C)c(CNC(=O)c2ccc3c(c2)nc2n3CCCCC2)c1` was inactive: 81%; that for `C=CCNc1sc(C(=O)C(C)(C)C)c(N)c1C#N` was inactive: 95%. As for `Cc1cccc(-n2ccnc2SCC(=O)Nc2ccc(F)cc2F)c1C`, the survival was inactive: 71%. For `Cc1ccc(Nc2nc(C)cs2)cc1` the value was inactive: 95%. The value for `Cc1cc(Oc2c(C(F)(F)F)oc3c(CN4CCC(C)CC4)c(O)ccc3c2=O)cc(C)c1Cl` was inactive: 70%. On to `O=C(Cn1c(=O)oc2cc(S(=O)(=O)N3CCCCCC3)ccc21)NCc1ccccc1Cl`, for which the survival was inactive: 71%. For `Cc1ccc(S(=O)(=O)NC(=O)CC#N)cc1` the value was inactive: 118%. The value for `O=C(Nc1cccnc1)c1cccc(C(=O)Nc2cccnc2)c1` was inactive: 117%; that for `C[C@H](NC(=O)OC(C)(C)C)c1nnc(SCc2c(F)cccc2Cl)o1` was inactive: 80%; that for `CCC(=O)Nc1nc(-c2ccc(C)c(C)c2)cs1` was inactive: 108%. For `CCOC(=O)c1ccc(N2N=C(C(F)(F)F)CC2=O)cc1` the value was inactive: 89%; for `CCc1ccc(NC(=O)Cn2nc3c4ccccc4n(Cc4ccccc4)cc-3c2=O)cc1`, inactive: 84%; for `CCc1nc2ccc(C(=O)N3CCN(c4cccc(C)c4C)CC3)cc2nc1CC`, inactive: 71%. As to `Cc1ccc(-c2nc3c4ccccc4[nH]c(=O)n3n2)cc1`, the survival is inactive: 64%.

`CCN(C(=O)/C=C/c1cc(OC)c(OC)c(OC)c1)C1CCCCC1`: the survival is inactive: 107%. The value for `O=C(c1ccc(CSc2nc3ccncc3n2Cc2ccc(F)cc2)cc1)N1CCCCCC1` was inactive: 77%; that for `COCCCNC(=O)c1cc2c(=O)oc3ccc(C)cc3c2s1` was inactive: 79%. For `CCOc1ccc(-c2cc(OC(=O)c3ccc(OC)cc3)c3c(C)oc(C)c3c(=O)c2)cc1` the value was inactive: 70%; for `COc1cc2nc(C3CCC3)n(NC(=O)COc3ccccc3)c(=O)c2cc1OC`, inactive: 105%; for `O=C1CC(c2cccc(O)c2)c2c(nc(SCc3ccccc3F)[nH]c2=O)N1` (stereo not given), inactive: 107%. As to `CCOc1ccc(C(=O)N(Cc2sccc2C)C2CCS(=O)(=O)C2)cc1` (stereo not given), the survival is inactive: 94%. For `CN(C)C(=O)CN1CCC(N2CCCCC2)CC1` the value was inactive: 99%; for `CCOc1ccccc1CNC(=O)c1cc2n(n1)CCCN(Cc1ccc(C)cc1)C2=O`, inactive: 88%.

As for `CCc1ccccc1NC(=O)Nc1ccc2c(c1)N(CC)C(=O)c1ccccc1S2`, the survival was inactive: 63%. For `CCOc1ccc(NC(=O)CSc2nc(C)c(C(=O)Nc3ccccc3)c(-c3ccc(Cl)cc3)c2C#N)cc1` the value was inactive: 94%. Consider `CCc1cccc(-n2c(C)nc3c(cnn3-c3ccc(C)c(C)c3)c2=O)c1`, for which the survival was active: 2%. The value for `O=C(Nc1ccc(OC(F)(F)F)cc1)c1nc2ccccc2nc1N1CCCCC1` was inactive: 138%; that for `COc1cc(OC)c(NC2(c3ccccc3)C(=O)c3ccccc3C2=O)cc1Cl` was inactive: 65%; that for `CCn1c2ccccc2c2cc(CN3CCN(Cc4ccccc4Cl)CC3)ccc21` was active: 1%. For `COc1cccc(NC(=O)CSc2nc3cc(OC)c(OC)cc3c3nc(-c4ccccc4)nn23)c1` the value was inactive: 68%; for `CCCCc1nn2c(=O)cc(COC(=O)c3cccc(NC(=O)CCc4ccccc4)c3)nc2s1`, inactive: 81%; for `CCOC(=O)c1ccc(NC(=O)/C(C#N)=C/c2ccc(OC)cc2)cc1`, inactive: 79%. The value for `S=c1nc(CNc2ccccc2)[nH][nH]1` was inactive: 95%; that for `O=C(CSc1nccc(=O)[nH]1)Nc1cccc2ccccc12` was inactive: 105%; that for `CCc1ccc(-n2c(=O)c3c(C)c(C)sc3n(CC(=O)NCc3ccc(C)cc3)c2=O)cc1` was inactive: 138%. Consider `O=S(=O)(NCc1nc2cccnc2n1Cc1ccccc1)c1ccc2c(c1)CCCC2`, for which the survival was inactive: 80%. As to `N#C/C(=C/c1ccc(Cl)cc1)c1nc(-c2ccc(Br)cc2)cs1`, the survival is inactive: 83%. As for `CCCN(CCC)C(=O)Cn1c(=O)n(-c2ccccc2)c(=O)c2c3c(sc21)CCCC3`, the survival is inactive: 82%.

As to `COc1cc(/C=C(\C#N)c2nc3ccccc3[nH]2)cc(Cl)c1OCc1ccccc1Cl`, the survival is inactive: 76%. The value for `Cc1ccc(CSc2oc(-c3ccco3)nc2S(=O)(=O)c2ccc(C)cc2)cc1` was inactive: 62%; that for `COc1cc2c(cc1OC)C(Cc1ccc(O)cc1)N(C)CC2` (stereo not given) was inactive: 99%.

As to `Cc1[nH]c2ccc(-c3nnc(SCCC#N)n3C)cc2c1C`, the survival was inactive: 113%. For `O=C(CCC1N=C2c3ccccc3N=C(SCc3ccc(Cl)cc3)N2C1=O)NCCc1ccccc1` (stereo not given) the value was inactive: 93%.

Turning to `Cc1ccc(-c2cc(-c3ccc4c(c3)OCO4)c(C#N)c(N)n2)cc1`, the survival is inactive: 98%. The value for `O=C(NC1CSC/C1=N\O)c1ccccc1` (stereo not given) was inactive: 91%; that for `CS(=O)(=O)c1ccc2nc(NC(=O)c3ccccc3)sc2c1` was inactive: 111%. The value for `COc1cc2nc(SCC(=O)Nc3c(C)cc(C)cc3C)n3nc(CCn4c(C)nc5ccccc54)nc3c2cc1OC` was inactive: 91%; that for `CCOC(=O)c1c(S(=O)(=O)NCC(=O)N2CCN(c3ccccc3)CC2)c(C)n(C)c1C` was inactive: 112%.

With `Fc1ccc(C(NCCc2ccc(Cl)cc2)c2nnc(-c3ccccc3)o2)c(Cl)c1` (stereo not given), the survival was active: 3%.

Regarding `COc1ccccc1CNC(=O)CCn1c(=O)c2ccccc2n(CC(=O)Nc2ccc(C)cc2Cl)c1=O`, the survival was inactive: 110%. For `Cc1c(NC(=O)Nc2ccc(Br)cc2F)sc2nc3n(c(=O)c12)CCC(C)CC3` (stereo not given) the value was inactive: 92%.
